Experimental data published in PubChem BioAssay AID1671194 (National Center for Advancing Translational Sciences (NCATS), 2021).
About 240 (0.17%) of roughly 140,000 compounds were called active. The shares of active, inactive and inconclusive entries below differ from those in the screen. The call rests on the fitted dose curve; in most records, active means well fitted inhibition curve with a large enough effect; inconclusive means small, poorly fitted or top-dose-only effect; inactive means no such curve, though single readings can be large or run the other way. Where the call is inconclusive, the potency comes from a doubtful curve fit.

Test: Primary qHTS assay for inhibitors of alpha-synuclein gene (SNCA) expression; further: nearly all actives have a fitted effect of over 45% in size;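 on activity change, negative = inhibition: plate controls were DMSO cells for no effect and cell-free wells for full effect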
Conditions: HEK-293 SNCA-luciferase knock-in, luminescence, 24 h; activity change, negative = inhibition: at 57.2 µM (top of the series) unless noted
Potency means the concentration at half of the fitted maximal effect; tags describe the fitted curve by direction and shape.

Activity change, negative = inhibition, inactive:
CCN1c2cc(C(=O)Nc3cccc(C)c3)ccc2C(=O)N2CCCC21 (stereo not given) 14.5%, CCC(CC)NC(=O)C1CCN(c2cnn(CCOC)c(=O)c2)C1 (stereo not given) 6.4%, O=c1cc(-c2ccccc2)nc2cc(-c3ccc(F)cc3)[nH]n12 28.7%, CCc1noc(-c2ccn3c(CNC(=O)Cc4cccc(OC)c4)nnc3c2)n1 6.36%, O=S(=O)(Cc1ccccc1)N1CCC(Oc2ccc(-c3noc(C4CC4)n3)cc2)C1 (stereo not given) 0.0337%, COc1ccc(OCC(=O)Nc2ccc(O)c(-c3nc4ccccc4s3)c2)cc1 -2.08%, Cc1ccc(-c2ccc3nnc(CNC(=O)CSc4ccncc4)n3n2)cc1 4%, OC(c1ccccc1)c1nc(Nc2ccc(C(F)(F)F)cc2)n[nH]1 (stereo not given) -0.898% [at 87.6 µM], O=C(Cc1ccc(Cl)cc1)NC1CCN(c2nccc(Nc3ccccc3Cl)n2)CC1 -25.5%, O=C(c1cc(Br)cn2ccnc12)N1CCN(c2ncccn2)CC1 20.4%, Cc1noc(C)c1CO[C@@H]1COCC[C@H]1NC(=O)c1cccc(=O)[nH]1 -3.68%, CC(C)Cn1c(=O)c(C(=O)Nc2ccc(F)cc2)nc2cccnc21 8.03% [at 87.6 µM], COCCn1ccc2c(C3=CCOCC3)nc(-c3cccc(CO)c3)cc21 4.9% [at 87.6 µM], O=C(NCc1ccccc1)Nc1cccc(-c2nnc3n2CCCC3)c1 -1.7%, Cc1occc1C(=O)N[C@@H]1CN(c2ncccn2)C[C@H]1CO -25.8%, COCCNC(=O)c1ccc2nc(-c3cccc(C)n3)oc2c1 -8.54% [at 87.6 µM], O=C(CC(c1cccc([N+](=O)[O-])c1)c1cn(Cc2ccc(F)cc2)c2ccccc12)N1CCCC1 (stereo not given) -28.3%, CCOc1ccc(NC(=O)CCS(=O)(=O)c2ccc3nc(C)sc3c2)cc1 -10.8%, CNC(=O)Cn1nc(C(=O)N2CCC3(CC2)[C@H](O)C[C@@H]3O)cc1C 4.62%, CC(C)c1ccc(CN2CCCC3(CCN(S(C)(=O)=O)C3)C2=O)cc1 (stereo not given) -11.4%, CN(C)C[C@@H]1CN(S(C)(=O)=O)C[C@H]1NC(=O)c1ccc(Cl)cc1 5.5%, O=C(c1ccc(C(F)(F)F)cc1)N1CCCC2(C1)C(=NC1CCCC1)NC(=O)N2c1cc(F)cc(F)c1 (stereo not given) -17.9%, COC(=O)c1cccc(NC(=S)N[C@H]2CO[C@H]3[C@@H]2OC[C@H]3OC(=O)Nc2cccc(C(F)(F)F)c2)c1 -11.2%

Potency, inconclusive:
O=C(C1CCC1)N1CCn2c(nnc2[C@@H]2C[C@@H](O)CN2Cc2ccccc2)C1 25.1 µM [inhibitor, single point], Cc1cccc(N(C)C(=O)CN(C)S(=O)(=O)c2ccc3[nH]c4c(c3c2)CCCC4)c1 39.8 µM [inhibitor, single point], COc1cc2ccccc2cc1C(=O)Nc1cc(-c2nc3ccccc3o2)ccc1C 15.8 µM [inhibitor, partial curve, poor fit], COc1ccccc1NC(=O)Cn1c(=O)n(CCc2ccccc2)c(=O)c2c3c(sc21)CN(C(C)=O)CC3 31.6 µM [inhibitor, single point], O=C(C1CCCC1)N1CC2(CCCN(Cc3cccnc3)C2)Cc2ccccc21 (stereo not given) 2.51 µM [inhibitor, full curve], Cc1ccc(CNC(=O)c2nc(-c3ccc(Cl)cc3)n3c2CCCCC3)cc1 12.6 µM [inhibitor, partial curve, poor fit], CC(C)C[C@@H]1N[C@H](C(=O)NCCN(C)C)Cc2cn(Cc3ccncc3)c3cccc1c23 56.2 µM [inhibitor, single point], CN1CCN(c2nc3c(c(=O)[nH]2)CCN(Cc2ccccc2F)CC3)CC1 39.8 µM [inhibitor, single point], CCOc1ccc(/C=C/c2nc(C#N)c(NC(C)CC)o2)cc1 (stereo not given) 7.08 µM [inhibitor, single point], COCCCNC(=O)C(NC(=O)C1CC1)C1CCN(C(=O)c2ccc(C)cc2)CC1 (stereo not given) 5.62 µM [inhibitor, single point], CCCCOc1ccc(C(=O)NCCc2sc(-c3cccc(F)c3)nc2C)cc1 39.8 µM [inhibitor, single point], Cc1nc(N2CCN(C(=O)c3cccc(F)c3)CC2)cc(C(F)(F)F)n1 11.2 µM [inhibitor, partial curve, poor fit], CC(C)C[C@@H]1N[C@H](C(=O)NCCOc2ccccc2)Cc2c[nH]c3cccc1c23 28.2 µM [inhibitor, partial curve, poor fit], CCC(O)C1CCN(C(=O)c2cnn3cc(CN(CC)CC)cnc23)CC1 (stereo not given) 11.2 µM [inhibitor, partial curve, poor fit], COc1ccccc1CNC(=O)[C@@H]1Cc2c[nH]c3cccc(c23)[C@H](CC(C)C)N1 63.1 µM [inhibitor, partial curve, poor fit], O=C(NC1CCCCC1)N1CCC(c2nc(C3CCOCC3)no2)CC1 8.91 µM [inhibitor, single point], COc1ccc(NC(=O)N2CCc3c(C(=O)N(C)C)cccc32)cc1 1.58 µM [inhibitor, full curve, poor fit], O=C(NC1CC1)c1ccccc1OC1CN(Cc2cccc(C(F)(F)F)c2)C1 31.6 µM [inhibitor, single point], O=C(c1ccccc1)N1CCn2ncc(C(=O)N3CCOCC3)c2C1 8.91 µM [inhibitor, partial curve, poor fit], O=C(Nc1ccccc1)NC1CCN(Cc2cccc(-c3cccs3)c2)CC1 3.16 µM [inhibitor, full curve], Oc1ccccc1CN(CCN1CCCCC1)CC1CCCN(C2CCCC2)C1 (stereo not given) 0.708 µM [inhibitor, full curve, poor fit], Cc1n[nH]c(C)c1S(=O)(=O)N(CC(=O)NCc1ccccc1Cl)c1ccc(C(C)C)cc1 28.2 µM [inhibitor, single point], CCOc1ccccc1CNC(=O)CCc1cn(Cc2ccc(Cl)cc2)c2ccccc12 0.794 µM [inhibitor, full curve, poor fit], O=C(NCC1CN(C(=O)Cc2cccc(C(F)(F)F)c2)CC12CN(c1ccccc1)C2)Nc1ccccc1 (stereo not given) 39.8 µM [inhibitor, single point], Cc1cc(C)cc(NC(=O)CN(C)S(=O)(=O)c2ccc3[nH]c4c(c3c2)CCCC4)c1 39.8 µM [inhibitor, single point], Cc1ccc(S(=O)(=O)NCC2CCC(C(=O)N(C)Cc3ccccc3)CC2)cc1 (stereo not given) 39.8 µM [inhibitor, single point], Cc1ccc(Nc2ccnc(N3CCCC(C(=O)NCc4ccccc4F)C3)n2)cc1 (stereo not given) 10 µM [inhibitor, partial curve, poor fit], CO[C@H]1C(=O)N(C2CCN(C(=O)c3cnc(C)cn3)CC2)[C@H]1c1ccncc1 28.2 µM [inhibitor, single point], CCOC(=O)c1[nH]c2c(c1Cc1ccccc1)C(=O)CC(c1ccc(OC)cc1)C2 (stereo not given) 39.8 µM [inhibitor, single point], COc1ccc(C2(C(=O)N3CCC(Cc4nc(-c5ccccc5)no4)CC3)CC2)cc1 2 µM [inhibitor, full curve, poor fit], Cc1cc(-c2ccc(C)c(S(=O)(=O)N(Cc3cccs3)C(C)C)c2)on1 39.8 µM [inhibitor, single point], Cc1ccc(-c2cc(C(=O)NCc3ccc(F)cc3)c3cnn(C)c3n2)cc1 25.1 µM [inhibitor, single point], CCOc1cc(=O)n2c(c1C(=O)Nc1cccc(C(F)(F)F)c1)CCCC2 39.8 µM [inhibitor, single point], Cc1cc2c(cc1C)C(c1cccc(OC(C)C)c1)CC(=O)N2 (stereo not given) 22.4 µM [inhibitor, partial curve], O=C(c1ccoc1)N1CC(Oc2ccccc2-c2nc(C3CC3)no2)C1 12.6 µM [inhibitor, partial curve, poor fit], COCCn1c(SCC(=O)c2ccccc2)nc2cc(C(=O)NC3CCCC3)ccc2c1=O 1.41 µM [inhibitor, partial curve, poor fit], O=C1Cc2c(-c3ccccc3OCc3ccccc3)n[nH]c2CN1CCOc1ccccc1 3.98 µM [inhibitor, full curve], COCCn1ncc(N2CCC(C(=O)NCc3cccc(C(F)(F)F)c3)C2)cc1=O (stereo not given) 6.31 µM [inhibitor, single point], COc1ccc(-c2nc3cc(C)ccc3cc2CN2CCN(C)C(CCO)C2)cc1 (stereo not given) 2.24 µM [inhibitor, partial curve, poor fit], COc1ccc(CN2C=C(C(=O)OCc3noc(-c4ccco4)n3)C(C)=NS2(=O)=O)cc1 20 µM [inhibitor, single point], COc1ccc(OC)c2nc(-c3cccc(C)c3)c(CN3CCCC(O)C3)cc12 (stereo not given) 5.01 µM [inhibitor, single point], Cc1cnc(C2CCOCC2)n1CC1CCN(C(=O)CC2CCCC2)CC1 6.31 µM [inhibitor, full curve, poor fit]
